The supplement of paper PMC11876631
Numbering of substitutions follows the chain as printed. Names may count otherwise. ± gives the standard deviation of the averaged measurements. Laboratory Escherichia coli strains with one amino-acid change in an essential protein, pooled on minimal glucose agar with carbenicillin or gentamicin at twice the control MIC (plus kanamycin and chloramphenicol for the plasmids), 48 h. Fold change of barcode share against drug-free plates; higher = less susceptible. Active = above 20 in both replicates (the paper's putatively resistant). '<' = one read or none on drug, '>' = one read or none on a drug-free plate. Shares are relative, so most strains fall below 1 when a few take over. Listed are strains with at least 15 reads on both drug-free plates, and hits; most hits rest on fewer reference reads. Replicate rank correlation about 0.5. Edits are read from barcodes.

B1: glyA F302A (protein)
chain: MLKREMNIADYDAELWQAMEQEKVRQEEHIELIASENYTSPRVMQAQGSQLTNKYAEGYPGKRYYGGCEYVDIVEQLAIDRAKELFGADYANVQPHSGSQANFAVYTALLEPGDTVLGMNLAHGGHLTHGSPVNFSGKLYNIVPYGIDATGHIDYADLEKQAKEHKPKMIIGGFSAYSGVVDWAKMREIADSIGAYLFVDMAHVAGLVAAGVYPNPVPHAHVVTTTTHKTLAGPRGGLILAKGGSEELYKKLNSAVFPGGQGGPLMHVIAGKAVALKEAMEPEFKTYQQQVAKNAKAMVEVALERGYKVVSGGTDNHLFLVDLVDKNLTGKEADAALGRANITVNKNSVPNDPKSPFVTSGIRVGTPAITRRGFKEAEAKELAGWMCDVLDSINDEAVIERIKGKVLDICARYPVYA
B2: glyA M201Q (protein)
chain: B1 chain with M201Q, A302F
B3: glyA V199Q (protein)
chain: B1 chain with V199Q, A302F
B4: glyA M201D (protein)
chain: B1 chain with M201D, A302F
B5: glyA V223A (protein)
chain: B1 chain with V223A, A302F
B6: glyA I239W (protein)
chain: B1 chain with I239W, A302F
B7: glyA V223Q (protein)
chain: B1 chain with V223Q, A302F
B8: glyA M201A (protein)
chain: B1 chain with M201A, A302F
B9: glyA V199A (protein)
chain: B1 chain with V199A, A302F
B10: gltX M357A (protein)
chain: MKIKTRFAPSPTGYLHVGGARTALYSWLFARNHGGEFVLRIEDTDLERSTPEAIEAIMDGMNWLSLEWDEGPYYQTKRFDRYNAVIDQMLEEGTAYKCYCSKERLEALREEQMAKGEKPRYDGRCRHSHEHHADDEPCVVRFANPQEGSVVFDDQIRGPIEFSNQELDDLIIRRTDGSPTYNFCVVVDDWDMEITHVIRGEDHINNTPRQINILKALKAPVPVYAHVSMINGDDGKKLSKRHGAVSVMQYRDDGYLPEALLNYLVRLGWSHGDQEIFTREEMIKYFTLNAVSKSASAFNTDKLLWLNHHYINALPPEYVATHLQWHIEQENIDTRNGPQLADLVKLLGERCKTLKEAAQSCRYFYEDFAEFDADAAKKHLRPVARQPLEVVRDKLAAITDWTAENVHHAIQATADELEVGMGKVGMPLRVAVTGAGQSPALDVTVHAIGKTRSIERINKALDFIAERENQQ
B11: gltX M357D (protein)
chain: B10 chain with A357D
B12: gltX M357P (protein)
chain: B10 chain with A357P

Target: Escherichia coli (laboratory strain)
Assay: barcode share on antibiotic plates over drug-free plates; higher = less susceptible
Protocol: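 A pool of E. coli strains, each edited to carry one amino-acid change in an essential protein, was grown for 48 h on minimal glucose agar with or without antibiotic; strain barcodes were sequenced; mean of two replicates.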

[1] = antibiotic: carbenicillin, 2× MIC (3.1 µg/mL)
[2] = antibiotic: gentamicin, 2× MIC (MIC 0.45 µg/mL)

| Protein | fold change of barcode share [1] | fold change of barcode share [2] |
| --- | --- | --- |
| B1 | 0.418 ± 0.025 |  |
| B2 | 0.32 ± 0.027 | 0.00319 ± 0.0024 |
| B3 | 0.886 ± 0.54 |  |
| B4 | 0.821 ± 0.22 | 0.0193 ± 0.006 |
| B5 | 0.279 ± 0.16 | < 0.00596 |
| B6 | > 86.8 [active] |  |
| B7 | 0.888 ± 0.075 |  |
| B8 | 0.326 ± 0.21 | 0.0117 ± 0.011 |
| B9 | 0.364 ± 0.12 | < 0.00362 |
| B10 | 0.205 ± 0.087 | < 0.00861 |
| B11 | 0.233 ± 0.025 | < 0.00481 |
| B12 | 0.207 ± 0.036 | < 0.00607 |
